Experimental data: PubChem BioAssay AID504832 (National Center for Advancing Translational Sciences (NCATS), 2011)
In all, about 310,000 compounds went through this assay and about 18,000 (5.8%) were called active. The inconclusive results got no clear call from the source; some entries with a clear call stand among them for comparison. The call rests on the fitted dose curve; in most records, active means well fitted inhibition curve with a large enough effect; inconclusive means small, poorly fitted or top-dose-only effect, or another doubt; inactive means no such curve, though single readings can be large or run the other way. No potency is given beside an inconclusive call; the fits are too rough.

Experiment: Primary qHTS for delayed death inhibitors of the malarial parasite plastid, 48 hour incubation
Conditions: P. falciparum luciferase growth in erythrocytes; series mostly up to 28.7 µM; activity change, negative = inhibition: at the top concentration
In short: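 Parasite viability was followed by luminescence of a genomically integrated firefly luciferase. Cultures held 0.1% parasitemia at 2% hematocrit (final), incubated under 5% CO2 at 37 C.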
On the % scale 0 is the no-effect control and ±100 the full control effect; potency means the concentration at half of the fitted maximal effect; tags describe the fitted curve by direction and shape.

| SMILES | activity change, negative = inhibition | Potency |
| --- | --- | --- |
| C/C(=N\NC(=S)NCc1ccccc1)c1ccc(C)o1 | inactive: -16.6% | – |
| CNC(=S)/N=C/NOCc1ccc(Cl)cc1Cl | – | inconclusive [inhibitor, single point] |
| CC(=O)Nc1ccc(NC(=O)C2CC(=O)N(C(C)C)C2)cc1 (configuration not stated) | – | inconclusive [inhibitor, single point] |
| CCN1C(=O)c2cccc3c(N)ccc1c23 | – | inconclusive [inhibitor, single point] |
| c1ccc2c(Nc3nc(-c4ccncc4)nc4ccccc34)cccc2c1 | – | inconclusive [inhibitor, partial curve] |
| COc1cc(C(=O)N2CCN(C(=O)c3cc(-c4ccccc4)n[nH]3)CC2)cc(OC)c1OC | – | inconclusive [inhibitor, full curve] |
| COc1ccc(OC(=O)c2cnn(-c3ccccc3)c2C)cc1 | inactive: 198% | – |
| Cc1ccc(NC(=O)COC(=O)C(NS(=O)(=O)c2ccc(Cl)cc2)C(C)O)c(Br)c1 (configuration not stated) | inactive: 20.6% | – |
| NS(=O)(=O)c1ccc(NC(=O)C(=O)NCCC(=O)O)cc1 | inactive: 9.94% | – |
| O=C(c1ccc(=O)oc1)N1CCN(C(c2ccccc2)c2ccccc2)CC1 | – | inconclusive [inhibitor, single point] |
| CCC(C(=O)NCc1ccco1)n1nc(-c2ccc(OC)cc2)ccc1=O (configuration not stated) | – | inconclusive [inhibitor, single point] |
| COc1ccc(S(=O)(=O)N2CCCC(C(=O)NCc3ccccc3)C2)cc1 (configuration not stated) | – | inconclusive [inhibitor, single point] |
| Cc1ccc2cc(C(c3nnnn3CC3CCCO3)N3CCc4ccccc4C3)c(=O)[nH]c2c1 (configuration not stated) | – | inconclusive [inhibitor, partial curve, poor fit] |
| COCCn1c(SCC(=O)NCc2ccccc2)nc2ccccc21 | inactive: -0.214% | – |
| COc1ccc(C(OCC(O)CNCCc2ccccc2)c2ccc(OC)cc2)cc1 (configuration not stated) | – | active: 9.28 µM |
| FC(F)(F)c1cnc(NNC(=S)Nc2ccc(Cl)cc2)c(Cl)c1 | – | inconclusive [inhibitor, single point] |
| CCCC(=O)Nc1ccc(NC(=O)c2cccs2)cn1 | inactive: 55.4% | – |
| O=C(Nc1nc(-c2ccc(Cl)cc2)cs1)NC1CCCCC1 | – | inconclusive [inhibitor, partial curve] |
| CC(=O)NCCn1c(SCC(=O)c2ccccc2)nc2ccccc2c1=O | – | inconclusive [inhibitor, full curve, poor fit] |
| Cc1ccc(OCC(=O)NNC(=O)c2cc3ccccc3o2)cc1 | inactive: -11.5% | – |
| OCc1nc2ccccc2n1Cc1c(F)cccc1Cl | inactive: -2% | – |
| O=C(NCCNc1ccccc1[N+](=O)[O-])c1ccccc1F | inactive: 192% | – |
| COc1ccc(N(CN2C(=O)C3C4C=CC(C4)C3C2=O)C(=O)c2ccco2)cc1 (configuration not stated) | – | inconclusive [inhibitor, partial curve, poor fit] |
| Clc1ccc(SCCOCCN2CCCCCC2)cc1 | – | inconclusive [inhibitor, single point] |

| SMILES | activity change, negative = inhibition | Potency |
| --- | --- | --- |
| COc1cc2nc(SCC(=O)c3ccc(Br)cc3)n3nc(C)nc3c2cc1OC | inactive: -3.14% | – |
| CNC(=O)c1cccc(NC(=O)C(C)c2ccc3cc(OC)ccc3c2)c1 (configuration not stated) | – | inconclusive [inhibitor, single point] |
| O=C1CCCN1Cc1ncnn1-c1ccccc1 | – | inconclusive [inhibitor, partial curve, poor fit] |
| O=C(O)C1=C[C@H](c2ccc(F)cc2)C[C@H](OCCCCO)O1 | inactive: -1.45% | – |
| Cc1cc(N/N=C/c2ccc(Cl)cc2)nc(NCc2ccccc2)n1 | – | active: 1.04 µM |
| O=C1COc2ccc(C(=O)COC(=O)c3ccccc3[N+](=O)[O-])cc2N1 | inactive: 0.642% | – |
| C=CCN(c1ccccc1)S(=O)(=O)c1cccc(C(=O)NNC(=O)c2ccncc2)c1 | inactive: -17.4% | – |
| Cc1cccc(C(=O)Nc2cccnc2Cl)c1 | inactive: 55.9% | – |
| COc1ccc(O)c(/C=N/NC(=O)c2cc(=O)[nH]c3ccccc23)c1 | – | inconclusive [inhibitor, single point] |
| O=C(COc1ccc(/C=N/NC(=O)c2ccccc2Br)cc1)Nc1ccccc1 | – | inconclusive [inhibitor, single point] |
| CCn1cc(S(=O)(=O)NCc2ccc3c(c2)OCO3)cn1 | inactive: 21.7% | – |
| COc1cccc(NC(=O)Cc2nnc(SCC(=O)NC3=NCCS3)n2C)c1 | inactive: -16.5% | – |
| Cc1ccccc1CN1CCC(Oc2ccc(C(=O)N3CCCC3)cc2)CC1 | – | inconclusive [inhibitor, single point] |
| COCCN(C(=S)Nc1c(C)cc(C)cc1C)C(C)c1cccs1 (configuration not stated) | – | inconclusive [inhibitor, single point] |
| O=C(C[n+]1ccncc1)c1ccccc1 | inactive: 19.3% | – |
| CC(OC(=O)C1CSC2(C)CCC(=O)N12)C(=O)Nc1ccc(F)cc1 (configuration not stated) | inactive: -18.4% | – |
| COCc1c(C(=O)N/N=C(\C)c2ccncc2)nnn1-c1nonc1N | inactive: 29.9% | – |
| O=C(CNC(=O)c1ccccc1)Nc1ccc(Br)cc1C(=O)c1ccccc1 | inactive: -10.2% | – |
| Cc1ccc(C(=O)CCC(=O)Nc2ccc(Cl)c(S(=O)(=O)Nc3cccc(Cl)c3)c2)cc1 | inactive: 4.79% | – |
| Cc1ccc(S(=O)(=O)N2CCC(C(=O)NC3CCCCC3C)CC2)cc1 (configuration not stated) | inactive: 6.11% | – |
| CCN(CC)C(CNC(=O)CSc1nnnn1-c1c(C)cccc1C)c1ccco1 (configuration not stated) | – | inconclusive [inhibitor, partial curve, poor fit] |
| CCC1CCCCN1S(=O)(=O)c1ccc(NC(=O)c2ccncc2)cc1 (configuration not stated) | – | inconclusive [inhibitor, single point] |
| CC[C@@H]1CC=C[C@H]2[C@H]1C(=O)N(Cc1ccccc1)[C@H]2c1ccc2ccccc2c1 | – | active: 13.1 µM |
| NCCc1ccc(O)c(O)c1 | – | inconclusive [inhibitor, single point] |

| SMILES | activity change, negative = inhibition | Potency |
| --- | --- | --- |
| COc1ccc(CC2(C)OC(c3ccc(Cl)cc3)=NN2C(C)=O)cc1 (configuration not stated) | – | inconclusive [inhibitor, single point] |
| O=C(N/N=C/c1cccc2cccnc12)c1ccccc1O | – | inconclusive [inhibitor, single point] |
| C#CCOCCOCCOCCNc1nc(N2CCN(C(=O)CCCCCCCCCCNC(=O)[C@H](CCCCN)n3cc(CCO)nn3)CC2)nc(N2CCN(C(=O)CCCCCCCCCCNC(=O)[C@H](CCCCN)n3cc(CCO)nn3)CC2)n1 | – | active: 4.15 µM |
| CCCOc1ccc2oc(=O)c3c(c2c1)CCCN3C(=O)CN1CCCC(C(=O)OCC)C1 (configuration not stated) | – | inconclusive [inhibitor, partial curve, poor fit] |
| Oc1ccccc1N=N/C(=N/Nc1ccccc1O)c1ccccc1 | – | active: 4.15 µM |
| CCNC(=O)NC(=O)C(C)OC(=O)c1c(C)nn(Cc2ccccc2Cl)c1Cl (configuration not stated) | – | inconclusive [inhibitor, partial curve, poor fit] |
| CC(=O)Nc1cccc(Oc2nc(-c3ccccn3)nc3ccccc23)c1 | – | inconclusive [inhibitor, single point] |
| Cc1nc(NCCc2ccccc2)c2nnn(Cc3ccccc3)c2n1 | – | inconclusive [inhibitor, partial curve, poor fit] |
| C/C(=N\O)c1noc(C)c1C(=O)Nc1nccs1 | inactive: 1.67% | – |
| Cc1ccc(C(C(=O)Nc2ccc3c(c2)OCO3)N(C)C(=O)Cc2c[nH]c3ccccc23)cc1 (configuration not stated) | – | inconclusive [inhibitor, single point] |
| O=C(c1ccc(F)cc1)N1CCC(c2ccccc2)C1 (configuration not stated) | – | inconclusive [inhibitor, single point] |
| COc1ccc(CNC(=S)NC(C)CCc2ccccc2)cc1 (configuration not stated) | – | inconclusive [inhibitor, single point] |
| O=C(Cc1cccs1)N/N=C\c1ccc([N+](=O)[O-])s1 | – | inconclusive [inhibitor, partial curve, poor fit] |
| COc1ccccc1OCCCC(=O)Nc1ccc2c(c1)OCCO2 | inactive: 15% | – |
| CC(C)c1ccc(CNC(=O)C2CCCN2S(=O)(=O)c2ccccc2)cc1 (configuration not stated) | – | inconclusive [inhibitor, partial curve] |
| O=C(CN1C(=O)NC2(CCCC2)C1=O)Nc1ccccc1N1CCCCC1 | – | inconclusive [inhibitor, single point] |
| O=C(C1=C(O)C(=O)N(CCCN2CCOCC2)C1c1ccccn1)c1cccs1 (configuration not stated) | – | inconclusive [inhibitor, partial curve, poor fit] |
| CN(CC(=O)Nc1ccc(Cl)cc1)C(=O)c1ccc(S(=O)(=O)Nc2ccccc2)cc1 | – | inconclusive [inhibitor, single point] |
| Cc1ccc(NC(=O)c2cc3ccccc3o2)cc1S(=O)(=O)N(C)C | inactive: 188% | – |
| C[C@@H]1CN(C(=O)c2nc3ccc(Cl)cn3c2CNCC[C@@H]2C[C@@H]3C=C[C@H]2C3)C[C@H](C)O1 | – | active: 8.28 µM |
| COc1ccc(-c2nn(CCC#N)cc2/C=N/O)cc1OC | – | inconclusive [inhibitor, partial curve, poor fit] |
| O=C(NCc1ccc2c(c1)OCO2)C(=O)NCC(c1ccco1)N1CCN(c2ccccc2)CC1 (configuration not stated) | – | inconclusive [inhibitor, single point] |
| Cc1ccc(N(CC(=O)N2CCN(C3CCCCC3)CC2)S(=O)(=O)c2cccnc2)cc1 | – | inconclusive [inhibitor, partial curve, poor fit] |
| COc1cc(C(=O)Nc2ccc(S(=O)(=O)N3CCCCC3C)cc2)cc(OC)c1OC (configuration not stated) | – | active: 8.28 µM |
